# Test results: article PMC10470960
# Substitutions are numbered along the chain they refer to. Names may count otherwise. No constants are given. Whether binding was seen depends on the method and setting. For part of these data: Binding seen in cells or lysates may run through a third protein. Some binding calls cover weakened binding; strength is not graded here. Tags and fused reporters may be left off the sequences shown.
# T1: Ime4p fused to the Gal4p DNA-binding domain (S. cerevisiae) (UniProt P41833)
# T1 sequence: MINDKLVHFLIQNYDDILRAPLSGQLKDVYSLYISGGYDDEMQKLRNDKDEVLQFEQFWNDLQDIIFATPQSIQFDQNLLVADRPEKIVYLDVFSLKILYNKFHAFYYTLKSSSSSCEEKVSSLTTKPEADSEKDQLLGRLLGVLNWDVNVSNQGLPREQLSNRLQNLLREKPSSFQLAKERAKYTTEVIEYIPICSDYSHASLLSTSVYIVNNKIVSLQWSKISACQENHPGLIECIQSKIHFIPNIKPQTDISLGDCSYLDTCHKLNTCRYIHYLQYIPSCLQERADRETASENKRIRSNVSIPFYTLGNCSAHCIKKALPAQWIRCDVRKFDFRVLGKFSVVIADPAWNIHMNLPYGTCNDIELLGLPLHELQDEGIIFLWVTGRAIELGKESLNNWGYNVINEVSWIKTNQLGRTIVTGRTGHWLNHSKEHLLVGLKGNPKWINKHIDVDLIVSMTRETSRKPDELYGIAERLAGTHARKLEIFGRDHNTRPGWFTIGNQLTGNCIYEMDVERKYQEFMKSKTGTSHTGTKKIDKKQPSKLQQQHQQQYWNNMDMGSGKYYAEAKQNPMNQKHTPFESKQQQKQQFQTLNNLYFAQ
# T2: Mum2p fused to the 4xMYC epitope (S. cerevisiae) (UniProt P38236)
# T2 sequence: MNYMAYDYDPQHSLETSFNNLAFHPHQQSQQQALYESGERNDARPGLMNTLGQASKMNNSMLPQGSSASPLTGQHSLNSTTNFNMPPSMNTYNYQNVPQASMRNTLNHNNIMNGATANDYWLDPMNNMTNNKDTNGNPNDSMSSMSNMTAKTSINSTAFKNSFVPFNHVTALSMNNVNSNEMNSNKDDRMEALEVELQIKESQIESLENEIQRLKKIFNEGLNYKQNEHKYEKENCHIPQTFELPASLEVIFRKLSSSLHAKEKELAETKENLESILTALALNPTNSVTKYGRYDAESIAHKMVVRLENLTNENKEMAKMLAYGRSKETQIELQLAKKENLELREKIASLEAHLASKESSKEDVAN
# T3: Kar4p fused to the 13xMYC epitope (S. cerevisiae), P25583
# T3 chain: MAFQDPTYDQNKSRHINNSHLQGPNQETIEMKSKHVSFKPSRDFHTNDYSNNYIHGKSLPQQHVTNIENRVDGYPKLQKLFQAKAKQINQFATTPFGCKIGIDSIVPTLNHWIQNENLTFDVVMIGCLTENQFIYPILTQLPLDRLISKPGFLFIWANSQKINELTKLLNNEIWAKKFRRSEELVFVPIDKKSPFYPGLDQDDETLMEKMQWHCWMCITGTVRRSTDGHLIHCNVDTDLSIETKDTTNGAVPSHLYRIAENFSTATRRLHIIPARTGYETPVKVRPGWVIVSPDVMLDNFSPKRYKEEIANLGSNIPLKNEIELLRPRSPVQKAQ
# T4: Slz1p fused to the 3xHA epitope (S. cerevisiae), P40167
# T4 chain: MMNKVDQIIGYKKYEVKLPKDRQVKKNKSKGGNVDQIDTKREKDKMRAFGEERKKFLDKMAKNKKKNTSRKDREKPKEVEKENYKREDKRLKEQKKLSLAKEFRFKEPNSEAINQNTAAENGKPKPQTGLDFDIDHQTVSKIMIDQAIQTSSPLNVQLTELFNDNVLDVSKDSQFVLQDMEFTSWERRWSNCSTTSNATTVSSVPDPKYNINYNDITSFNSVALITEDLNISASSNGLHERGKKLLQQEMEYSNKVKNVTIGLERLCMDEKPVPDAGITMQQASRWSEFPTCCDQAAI
# B1: Kar4p fused to the Gal4p activating domain (protein, UniProt P25583 1-335)
# chain: T3 chain
# B2: Kar4p-3HA A310Stop (domain or fragment, UniProt P25583 1-309)
# chain: MAFQDPTYDQNKSRHINNSHLQGPNQETIEMKSKHVSFKPSRDFHTNDYSNNYIHGKSLPQQHVTNIENRVDGYPKLQKLFQAKAKQINQFATTPFGCKIGIDSIVPTLNHWIQNENLTFDVVMIGCLTENQFIYPILTQLPLDRLISKPGFLFIWANSQKINELTKLLNNEIWAKKFRRSEELVFVPIDKKSPFYPGLDQDDETLMEKMQWHCWMCITGTVRRSTDGHLIHCNVDTDLSIETKDTTNGAVPSHLYRIAENFSTATRRLHIIPARTGYETPVKVRPGWVIVSPDVMLDNFSPKRYKEEI
# B3: Kar4p-3HA A85P (protein, UniProt P25583 1-335)
# chain: T3 chain with A85P
# B4: Kar4p-3HA P273L (protein, UniProt P25583 1-335)
# chain: T3 chain with P273L
# B5: Kar4p-3HA C127Y (protein, UniProt P25583 1-335)
# chain: T3 chain with C127Y
# B6: Kar4p-3HA M207R (protein, UniProt P25583 1-335)
# chain: T3 chain with M207R
# B7: Kar4p-3HA E260G (protein, UniProt P25583 1-335)
# chain: T3 chain with E260G
# B8: Kar4p fused to the 3xHA epitope (protein, UniProt P25583 1-335)
# chain: T3 chain
# B9: Kar4p-3HA H213Y (protein, UniProt P25583 1-335)
# chain: T3 chain with H213Y
# B10: Kar4p-3HA P293L (protein, UniProt P25583 1-335)
# chain: T3 chain with P293L
# B11: Kar4p-3HA Q132K (protein, UniProt P25583 1-335)
# chain: T3 chain with Q132K
# B12: Kar4p-3HA T264P (protein, UniProt P25583 1-335)
# chain: T3 chain with T264P
# B13: Kar4p-3HA A157P (protein, UniProt P25583 1-335)
# chain: T3 chain with A157P
# B14: Kar4p-3HA L255F (protein, UniProt P25583 1-335)
# chain: T3 chain with L255F
# B15: Kar4p-3HA G287D (protein, UniProt P25583 1-335)
# chain: T3 chain with G287D
# B16: Kar4p-3HA G126A (protein, UniProt P25583 1-335)
# chain: T3 chain with G126A
# B17: Kar4p-3HA W156G (protein, UniProt P25583 1-335)
# chain: T3 chain with W156G
# B18: Kar4p-3HA W212R (protein, UniProt P25583 1-335)
# chain: T3 chain with W212R
# B19: Kar4p-3HA F186S (protein, UniProt P25583 1-335)
# chain: T3 chain with F186S
# B20: Kar4p-3HA E183K (protein, UniProt P25583 1-335)
# chain: T3 chain with E183K
# B21: Kar4p-3HA E260K (protein, UniProt P25583 1-335)
# chain: T3 chain with E260K
# B22: Kar4p-3HA ΔP281V282 (protein, UniProt P25583 1-335)
# chain: MAFQDPTYDQNKSRHINNSHLQGPNQETIEMKSKHVSFKPSRDFHTNDYSNNYIHGKSLPQQHVTNIENRVDGYPKLQKLFQAKAKQINQFATTPFGCKIGIDSIVPTLNHWIQNENLTFDVVMIGCLTENQFIYPILTQLPLDRLISKPGFLFIWANSQKINELTKLLNNEIWAKKFRRSEELVFVPIDKKSPFYPGLDQDDETLMEKMQWHCWMCITGTVRRSTDGHLIHCNVDTDLSIETKDTTNGAVPSHLYRIAENFSTATRRLHIIPARTGYETKVRPGWVIVSPDVMLDNFSPKRYKEEIANLGSNIPLKNEIELLRPRSPVQKAQ
# B23: Slz1p fused to the 3xHA epitope, P40167 1-298 (protein)
# chain: T4 chain
# B24: Kar4p fused to the 13xMYC epitope, P25583 1-335 (protein)
# chain: T3 chain
# Biological target: T1, Ime4p fused to the Gal4p DNA-binding domain (S. cerevisiae)
# Experiment: two-hybrid; fusions swapped: KAR4-GAD with IME4-GBD; ADE2 reporter
# Conditions: not given
row,binding,Binder
1,binds,B1

# Biological target: T2, Mum2p fused to the 4xMYC epitope (S. cerevisiae)
# Experiment: co-IP; Mum2p-4MYC purified on anti-MYC magnetic beads from extracts of cells sporulated for four hours, Kar4p-3HA detected by western blot; lysis buffer 1% Triton-X 100, 0.2 M Tris-HCl pH 7.4, 0.3 M NaCl, 20% glycerol, 0.002 M EDTA; one hour at room temperature
# Conditions: not given
row,binding,Binder
1,binds,B2
2,binds,B3
3,binds,B4
4,binds,B5
5,no binding,B6
6,binds,B7
7,binds,B8
8,binds,B9
9,binds,B10
10,binds,B11
11,binds,B12
12,binds,B13
13,binds,B14
14,no binding,B15
15,binds,B16
16,binds,B17
17,binds,B18
18,binds,B19
19,binds,B20
20,binds,B21
21,no binding,B22

# Biological target: T3, Kar4p fused to the 13xMYC epitope (S. …)
# Experiment: co-IP; Slz1p-3HA purified on anti-HA magnetic beads and Kar4p-MYC detected, or Kar4p-MYC purified on anti-MYC beads and Slz1p-3HA detected; extracts of cells sporulated for four hours; lysis buffer 1% Triton-X 100, 0.2 M Tris-HCl pH 7.4, 0.3 M NaCl, 20% glycerol, 0.002 M EDTA
# Conditions: remark: other sources report otherwise
row,binding,Binder
1,binds,B23

# Biological target: T4, Slz1p fused to the 3xHA epitope (S. …)
# Experiment: as above
# Conditions: remark: other sources report otherwise
row,binding,Binder
1,binds,B24
